# About 220 (0.56%) of roughly 39,000 compounds showed activity. This is one part of the list.
# System: Escherichia coli K-12 BW25113
# Experiment: relative growth (OD600 normalised to plate interquartile mean) (fraction); higher = less growth inhibition, active = 0.2 or less
# Details: 50 µM; LB; incubation time: overnight (16-24 h)
# 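Further: static incubation at 37 °C against the wild-type strain, values averaged over two biological replicates.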
row,SMILES,relative growth
1,N=C(NCCC[C@H](N)C(=O)O)N[C@@H](CCC(=O)O)C(=O)O,inactive: 1
2,Cc1ccc(S(=O)(=O)Nc2ccc3c(c2)C(=O)N(C)[C@@H]2CC[C@H](CC(=O)NCCc4ccncc4)O[C@H]2CO3)cc1,inactive: 0.992
3,COc1ccc(CN(C)C[C@H]2OCCCC[C@@H](C)Oc3ccc(NS(=O)(=O)c4c(C)noc4C)cc3C(=O)N([C@H](C)CO)C[C@@H]2C)cc1,inactive: 1.01
4,COCC#Cc1ccc2c(c1)O[C@H](CN(C)S(=O)(=O)c1ccc(OC)cc1)[C@H](C)CN([C@H](C)CO)S2(=O)=O,inactive: 1.05
5,CC(C)NC(=O)Nc1ccc2c(c1)C(=O)N([C@@H](C)CO)C[C@H](C)[C@@H](CN(C)C(=O)C1CCCCC1)OCCCC[C@@H](C)O2,inactive: 1
6,Cc1noc(C)c1NC(=O)N(C)C[C@@H]1OCCCC[C@@H](C)Oc2ccc(NS(=O)(=O)c3ccc(Cl)cc3)cc2C(=O)N([C@@H](C)CO)C[C@H]1C,inactive: 1.01
7,CC(C)(C)[S@@](=O)N1Cc2cc(C(=O)NC3CCCCC3)nc(-c3cccc(Br)c3)c2[C@H]1CCO,inactive: 0.962
8,CC(C)CCC[C@@H](C)[C@H]1CC[C@@]2(C)C3=C(CC[C@]12C)[C@@]1(C)CC[C@H](OC(=O)CCl)C(C)(C)[C@@H]1CC3,inactive: 0.911
9,N=C(N)NCCC[C@@H](NC(=O)CC1(CC(=O)N2CCN([C@H]3c4ccccc4NC(=O)c4ccccc43)CC2)CCCC1)C(=O)NCCn1c(=O)n(-c2ccccc2)n(-c2ccccc2)c1=O,inactive: 0.801
10,COc1ccc(CN(C)C[C@H]2OCCCC[C@H](C)Oc3ccc(NC(=O)Nc4ccc5c(c4)OCO5)cc3C(=O)N([C@H](C)CO)C[C@H]2C)cc1,inactive: 0.989
11,COCC(=O)N1C[C@@H](C)[C@H](OC)CN(C)C(=O)c2ccc(NC(=O)c3ccc(F)cc3)cc2OC[C@H]1C,inactive: 0.992
12,COC(=O)c1cc(S(C)(=O)=O)ccc1OC,inactive: 0.977
13,C[C@@H]1CCCCO[C@@H](CN(C)S(=O)(=O)c2ccc(Cl)cc2)[C@@H](C)CN([C@@H](C)CO)C(=O)c2cc(NC(=O)c3ccccc3)ccc2O1,inactive: 1.02
14,Cc1noc(C)c1S(=O)(=O)Nc1ccc2c(c1)CC(=O)N([C@@H](C)CO)C[C@@H](C)[C@@H](CN(C)Cc1ccc(-c3ccccc3)cc1)O2,inactive: 1.02
15,O=C(C[C@@H]1CC[C@@H]2[C@H](COC[C@@H](O)CN2C(=O)c2ccncc2)O1)NCc1ccc(-c2ccccc2)cc1,inactive: 1.01
16,CN(C)CCCNC(=O)C[C@@H]1C=C[C@H](NC(=O)Cc2cccnc2)[C@H](CO)O1,inactive: 0.874

# From the supplement of paper PMC9446081
